Source: the supplement of paper PMC10338343
± gives the standard deviation. Whole data set: some 6,600 sequences, median “pre-steady-state target cleavage rate” near 0.07, cut for the highest 2% near 0.72. Only a part is listed here, and it is no random draw.

system: MIWI (PIWIL1) piRISC loaded with Kctd7 piRNA (30 nt); assay: pre-steady-state target cleavage rate (min^-1); MIWI and MILI are mouse PIWI proteins and EfPiwi is from a freshwater sponge; tags in brackets are library labels; higher = faster piRNA-guided slicing of the target; conditions: guide: Kctd7 piRNA 5'p-UGUUAAUCUCUCAGAGAAGGUGACAGUGAU; auxiliary factor: 500 nM mouse GTSF1
In short: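 At 33 °C in HEPES–potassium acetate buffer, a transcribed, DNA-blocked target RNA library […] was exposed for 0–8 or 0–960 min to 1 nM active affinity-purified piRISC carrying a single synthetic guide, with or without 500 nM GTSF1 partner protein. Uncleaved targets were sequenced and normalised to depth and to weakly complementary targets. With three trials pooled and k3 capped at 0.0001 min^-1, a burst-and-steady-state fit produced the pre-steady-state cleavage rate.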
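Further: 1 nM active piRISC with 0.1 nM target library at 33 °C single turnover.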

Row | Sequence | pre-steady-state target cleavage rate
1 | UAGUGACACACCUUCUCUGUGAGAUUAUGA | 0.00909 ± 0.0027
2 | UAGUGACUCACCUUCUCUGAGAGUUUUUGA | 0.00432 ± 0.0039
3 | AUCACUGUCACCUUCUCUGAGAGAUUAAUCA | 0.381 ± 0.04
4 | UACACUGUCACCUUCUCUGAGACGAUUAACA | 0.0233 ± 0.0046
5 | UAGUCUGUCACCUUCUCUGAGAGAUUAAGCA | 0.18 ± 0.024
6 | UACACUGUCACCUUCACUGAGAGAUUAUGA | 0.104 ± 0.029
7 | UUCACUCUCUCCUUCUCUGAGAGAUUAACA | 0.398 ± 0.027
8 | UAGUCUGUCACCUUCACUGUGAGAUUAACA | 0.139 ± 0.0065
9 | UAGUGUGGCACCUUCUCUGAGAGAUUAACA | 0.243 ± 0.058
10 | UAGUGUGUCACCUUCCUCUGAGAGAUUAACA | 0.284 ± 0.024
11 | UAGUGACUCAGCUUCUCUGAGAGAUUAUCA | 0.0496 ± 0.0071
12 | UAGUGACUCACCUUCUCUGAGAGUUUAACA | 0.386 ± 0.07
13 | UACACUGUCACCUUCUGAGAGAGAUUAUGA | 0.0105 ± 0.0071
14 | UACUCUGUCACCUUCUCAGAGAGAUUAACA | 0.313 ± 0.026
15 | AUCACUGUCACCUUCUCUGAGAGAUUACCA | 0.229 ± 0.04
16 | UAGACUGUCACCUUCUCUGAGAGAAUAUCA | 0.0088 ± 0.004
17 | UUCACAGUCACCUUCUCUGACAGAUUAACA | 0.515 ± 0.031
18 | UUCACUGACACCUUCUCAGAGAGAUUAACA | 0.252 ± 0.016
19 | UAGUGACACACCGUCUCUGAGAGAUUAACA | 0.443 ± 0.03
20 | AUCACUGUCACCUUCUCUGUGAGAUUUUGA | 0.0412 ± 0.013

Row | Sequence | pre-steady-state target cleavage rate
21 | UAGUGACACACCUUCUCUGAGACAUUUACA | 0.00651 ± 0.003
22 | AUCACUGUCACCUUCGUCUGAGAGAUUAACA | 0.212 ± 0.04
23 | UAGUGACACACCUUCUCUGAGAGAUUUUGA | 0.0134 ± 0.005
24 | UAGUGUGUCACCUUCUCUGAGUGAUUAAGA | 0.0052 ± 0.004
25 | UACACUGAGACCUUCUCUGAGAGAUUAUGA | 0.0374 ± 0.015
26 | UACACUGUCUACCUUCUCUGAGAGAUUAACA | 0.149 ± 0.013
27 | UAGUGACAGUCCUUCUCUGAGAGAUUCAACA | 0.0144 ± 0.003
28 | AUCUCUGUCACCUUCUCUGAGAGAUUAUCA | 0.181 ± 0.031
29 | UAGUCUGUCAGCUUCUCUGAGAGAUUAACA | 0.453 ± 0.023
30 | UAGUGACAGACCUUCUCUGAGAGAUUAAACA | 0.109 ± 0.017
31 | UUCUCUGUCACCUUCUCUGAGAGAUUUUGA | 0.105 ± 0.024
32 | UACACUCACACCUUCUCUGAGAGAUUAUGA | 0.0541 ± 0.015
33 | UAGUGUGUCACCUUCUCUGAGGAGAUUAACA | 0.00856 ± 0.0052
34 | AUCACUGUCACCUUCUCUGAGAGAUUAACCA | 0.603 ± 0.042
35 | UAGUGACACACCUUCUCUGUGAGAUUAAGA | 0.0284 ± 0.008
36 | UUCACUGUCACCUUCUCCUGAGAGAUUAACA | 0.795 ± 0.21
37 | UAGUGACAGUCCUUCUCUGUGAGAUUAUCA | 0.00744 ± 0.002
38 | UAGACAGUCACCUUCUCUGAGACAUUAACA | 0.268 ± 0.02
39 | UAGUGACAGACCUUGCUCUGAGAGAUUAACA | 0.015 ± 0.0052
40 | UAGUGACACACGAUCUCUGAGAGAUUAACA | 0.0126 ± 0.0024
